In PubChem BioAssay AID624172 (National Center for Advancing Translational Sciences (NCATS), 2012):
Values joined by “and” are separate entries in the source; they are usually repeats but may differ in a detail not shown here. Equal values may be shown once. Among all 380,000 compounds or so, about 25 (0.007%) were called active. The shares of active, inactive and inconclusive entries below differ from those in the screen. The call rests on the fitted dose curve; in most records, active means well fitted activation curve with a large enough effect; inconclusive means small, poorly fitted or top-dose-only effect; inactive means no such curve, though single readings can be large or run the other way. No potency is given beside an inconclusive call; the fits are too rough.
Potency means the concentration at half of the fitted maximal effect; tags describe the fitted curve by direction and shape.
Wherever activation is given: % of control where 0% means no effect.

The molecules below were run against Glucagon-like peptide 1 receptor (Homo sapiens) (UniProt P43220) (assay: qHTS of GLP-1 Receptor Agonists). Conditions: HEK293 GLP-1R CRE-luciferase, luminescence, 4-6 h, cells express a hypersensitive GLP-1R form; activation: at 45.6 µM (top of the series) unless noted.
Chain of UniProt P43220 (P43220 whole entry, looked up): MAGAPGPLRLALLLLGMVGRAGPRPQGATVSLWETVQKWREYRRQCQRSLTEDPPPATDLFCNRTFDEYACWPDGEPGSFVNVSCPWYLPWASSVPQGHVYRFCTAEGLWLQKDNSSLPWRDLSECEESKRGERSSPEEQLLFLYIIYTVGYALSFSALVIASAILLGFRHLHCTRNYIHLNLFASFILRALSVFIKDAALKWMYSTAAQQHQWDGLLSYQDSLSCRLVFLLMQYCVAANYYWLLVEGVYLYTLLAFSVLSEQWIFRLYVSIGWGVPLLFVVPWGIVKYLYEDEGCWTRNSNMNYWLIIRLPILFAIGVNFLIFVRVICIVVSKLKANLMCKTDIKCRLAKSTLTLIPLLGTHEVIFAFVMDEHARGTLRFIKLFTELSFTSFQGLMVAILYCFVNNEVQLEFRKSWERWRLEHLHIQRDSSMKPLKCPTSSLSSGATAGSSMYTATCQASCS
In the case of `COc1ccc(C(C)=O)cc1COc1nc(C)nc2ccccc12`, the “activation” value is reported as inactive: 8.92%. For `COc1ccc(CC(C)NCC(O)c2ccc(O)c(NC=O)c2)cc1` (stereo unspecified), the activation was inconclusive: 53.1% [activator] and inconclusive: 67.5% [activator] and inconclusive: 49.1% [activator]. For `CCCCNC(=O)CC1N=C2c3ccccc3N=C(SCC(=O)Nc3ccc(OC)cc3)N2C1=O` (stereo unspecified), the Potency was inconclusive [activator, single point]. For `Cc1cc(=O)oc2cc(OCCSCCN3CCOCC3)ccc12`, the Potency was inconclusive [activator, single point]. `CCOC(=O)n1c(=O)n(Cc2ccc(OC)cc2)c2ccccc21` was tested, and the Potency was inconclusive [activator, single point]. `COc1ccc(/C=N/NC(=S)NCCc2ccccc2)cc1` was tested, and the Potency was inconclusive [activator, single point]. `C=CCOc1ccc(CNc2ccc3[nH]c(=O)[nH]c3c2)cc1OCC` was tested, and the Potency was inconclusive [activator, partial curve, poor fit]. For `CC1=NN(C(=O)COc2ccc(C)c(C)c2)C(O)(c2ccc(Cl)cc2)C1` (stereo unspecified), the “activation” value was inactive: 7.04%. For `C=CCn1c(COc2ccccc2)nc2ccccc21`, the Potency was inconclusive [activator, partial curve, poor fit]. In the case of `C=C1CCC[C@]2(C)C[C@H]3OC(=O)C(CN4CCCCC4CO)[C@H]3CC12` (stereo partly specified), the “activation” value is reported as inactive: 0.393%. In the case of `CCN(C(=O)c1cc2ccccc2oc1=O)c1cccc(C)c1`, the Potency is reported as inconclusive [activator, partial curve, poor fit]. With `C=CCN=c1scc(-c2ccccc2)n1/N=C/c1ccccn1` the Potency was “inactive”. For `Cc1ccc(S(=O)(=O)N2CCN(C(=O)c3cc4c(s3)CCCC4)CC2)c(C)c1`, the “activation” value was inactive: -2.42%. For `CCN(CC)C(=O)Oc1ccc2c(c1)O/C(=C\c1ccco1)C2=O`, the Potency was inconclusive [activator, partial curve, poor fit]. `CC(C)Sc1nc(N)nc(-c2cccs2)c1C#N` was tested, and the Potency was inconclusive [activator, partial curve, poor fit]. For `COc1ccc2c(c1)C(CC(C)=O)N(c1ccc(-c3cccnc3)cc1)C(c1ccsc1)=C2` (stereo unspecified), the “activation” value was inactive: 20.5%. In the case of `O=C(CNC1CCCC1)Nc1ccc(N2CCCCCC2)cc1`, the activation is reported as inconclusive: 47.9% [activator]. `O=C(Cc1cccs1)Nc1cccc(-c2ccc3nncn3n2)c1` was tested, and the Potency was inconclusive [activator, partial curve, poor fit]. `CC=CCn1c(SCCCc2ccccc2)nc2c1c(=O)[nH]c(=O)n2C` was tested, and the Potency was inconclusive [activator, partial curve, poor fit]. `CCNC(=O)C1(C)CCCN(Cc2csc(-c3ccc(Cl)cc3)n2)C1` (stereo unspecified) was tested, and the “activation” value was inactive: -0.797%. With `O=C(NCCCn1ccnc1)/C(=C/c1ccccc1)NC(=O)c1ccccc1` the “activation” value was inactive: 4.84%. With `COc1ccc(C2=Nn3c(nnc3-c3ccccc3OC)SC2)cc1OC` the Potency was inconclusive [activator, partial curve]. In the case of `O=S1(=O)CC(N2CCN(CCO)CC2)CN1Cc1ccc(F)cc1` (stereo unspecified), the “activation” value is reported as inactive: 2.9%. With `CCn1cc(C(=O)NCc2ccccc2OC)c(=O)c2cc(S(=O)(=O)N3CCCCC3)ccc21` the “activation” value was inactive: -2.06%. `CN1CCN(CCCNC(=O)c2ccc(/C=C3\Oc4ccccc4N(Cc4ccccc4F)C3=O)cc2)CC1` was tested, and the Potency was inconclusive [activator, single point]. With `O=C(c1ccc(-c2cccc(C(F)(F)F)c2)o1)N1CCCC(C(F)(F)F)C1` (stereo unspecified) the Potency was inconclusive [activator, single point]. With `COc1cc(OC)cc(C(=O)Nc2nc3ccccc3[nH]2)c1` the “activation” value was inactive: 3.09%. In the case of `COc1cc(NC(=O)c2ccccc2)c(OC)cc1NC(=O)CN1CCCCC1`, the Potency is reported as inconclusive [activator, single point]. `Cc1cc(C(F)F)n2ncc(C(=O)NCc3ccccc3C(F)(F)F)c2n1` was tested, and the Potency was inconclusive [activator, partial curve, poor fit]. In the case of `O=C(O)c1ccc(NCc2cccnc2)cc1`, the “activation” value is reported as inactive: 1.17%. With `O=C(NC(=S)NCc1ccc(F)cc1)c1ccccc1` the “activation” value was inactive: -1.4%. With `COc1ccc(C(=O)OCC(=O)c2cc(OC)ccc2OC)c(OC)c1` the Potency was inconclusive [activator, single point]. For `COc1ccc(Nc2nc(NCCCN3CCOCC3)nc(N)c2[N+](=O)[O-])cc1`, the Potency was inconclusive [activator, partial curve, poor fit]. In the case of `COc1ccc(CNC(=O)[C@]2(C)CCC[C@@]3(C)C4CC[C@@]5(C)C[C@]4(CCC32)CC5=O)cc1` (stereo partly specified), the “activation” value is reported as inactive: -1.63%. In the case of `O=C(c1ccc(-c2ccc([N+](=O)[O-])cc2)o1)N1CCCC(C(F)(F)F)C1` (stereo unspecified), the Potency is reported as inconclusive [activator, partial curve, poor fit]. For `COc1ccc(-c2nc3c4ccccc4ccn3c2Cc2cccc(Cl)c2)cc1OC`, the “activation” value was inactive: 1.75%. `Cn1ccnc1SC(=O)N1c2ccccc2Sc2ccccc21` was tested, and the Potency was inconclusive [activator, single point]. `CCC(CC)c1nc(C(N)=O)c2[nH]c(=O)n(-c3ccc(OC)c(OC)c3)c2n1` was tested, and the Potency was inconclusive [activator, partial curve, poor fit]. In the case of `Cc1cccc2nc(COc3ccc4ccccc4c3Br)cn12`, the Potency is reported as inconclusive [activator, partial curve, poor fit]. For `COC(=O)c1c(NC(=O)c2ccc(C)o2)sc2c1CCCCC2`, the Potency was inconclusive [activator, partial curve, poor fit]. `COCCNc1nc(Nc2ccccc2Cl)c2sccc2n1` was tested, and the Potency was inconclusive [activator, partial curve, poor fit]. With `COc1ccc(C(=S)N2CCN(C)CC2)cc1Br` the “activation” value was inactive: 1.34%. In the case of `COc1ccc(/C=N/NC(=O)c2ccco2)cc1Cn1nc(C)cc1C`, the “activation” value is reported as inactive: 0.249%. With `CC(=O)Nc1ccc(-c2csc(NCCc3ccccc3)n2)cc1` the Potency was inconclusive [activator, single point]. In the case of `O=C(O)[C@@H](O)[C@@H](O)[C@H](O)C(=O)CO`, the Potency is reported as inconclusive [activator, full curve, poor fit]. With `COc1cc2c(cc1OC)C1=C(C#N)CC/C(=N\S(=O)(=O)c3cccc(Cl)c3)N1CC2` the Potency was inconclusive [activator, partial curve, poor fit]. With `Cc1cc(C)nc(N/N=C/c2sccc2C)n1` the “activation” value was inactive: 6.24%. `Cc1ccc(CC(C)(O)CC(C)(O)Cc2ccc(C)cc2)cc1` (stereo unspecified) was tested, and the “activation” value was inactive: 6.2%. For `CS(=O)(=O)N1CCC(C(=O)Nc2cccc(Br)c2)CC1`, the “activation” value was inactive: -1.91%. For `CCC(Oc1ccccc1)C(=O)O/N=C(\N)c1ccc(OC)c(OC)c1` (stereo unspecified), the Potency was inconclusive [activator, single point]. In the case of `O=C(Cn1ccsc1=NC(=O)C(F)(F)F)c1ccccc1`, the “activation” value is reported as inactive: 0.317%. With `CC(=O)C(/C=N/c1cc(-c2ccc(C)cc2)nn1-c1ccccc1)=C(\C)O` the “activation” value was inactive: 11.6%. For `CCC(C)(C)N1CC(=O)N(Cc2ccccc2)C(c2ccc(OC)cc2)C1=O` (stereo unspecified), the “activation” value was inactive: 15.1%. With `Cc1cc(Sc2nc(NC(C)C)nc(NC(C)C)n2)nc(Cl)n1` the Potency was inconclusive [activator, single point]. `COc1ccc([C@H]2CC(=O)C=C(c3ccccc3OC)C2)cc1OC` was tested, and the Potency was inconclusive [activator, partial curve, poor fit]. For `Cc1ccc(CSc2ccc3nnc(-c4ccccn4)n3n2)cc1`, the “activation” value was inactive: 7.07%. In the case of `O=C(CN1CCCCC1)Nc1ccc(S(=O)(=O)NC2CCCCC2)cc1`, the Potency is reported as inconclusive [activator, partial curve, poor fit]. With `COc1cc2c(cc1OC)CN(C(=O)c1ccc(OC)c(S(=O)(=O)N3CCCC3)c1)CC2` the Potency was inconclusive [activator, partial curve, poor fit]. In the case of `COc1ccc(/C=N/N(C)c2cc(=O)n(C)c(=O)[nH]2)cc1OC`, the Potency is reported as inconclusive [activator, partial curve, poor fit]. For `O=C(C1CC1)N1CCN(c2ccnc3cc(Cl)ccc23)CC1`, the “activation” value was inactive: -0.372%. For `COc1ccc(Cl)cc1-c1nc(-c2ccc(NC(=O)c3ccncc3)cc2)no1`, the “activation” value was inactive: 2.23%. In the case of `Cc1cccc2cc(C#N)c(NCCNS(=O)(=O)c3ccccc3)nc12`, the “activation” value is reported as inactive: 6.09%. With `N#Cc1c(-c2ccco2)cc(C2CC2)nc1N` the Potency was inconclusive [activator, partial curve]. `CCc1cc(=O)[nH]c(SCC(=O)Nc2cc(C)on2)n1` was tested, and the “activation” value was inactive: 8.16%. For `O=C1C2CC=CCC2C(=O)N1c1ccc(NCCc2ccc(O)cc2)c([N+](=O)[O-])c1` (stereo unspecified), the Potency was inconclusive [activator, partial curve]. `COc1cccc(/C=N/Nc2nn3cnnc3c3ccccc23)c1O` was tested, and the “activation” value was inactive: 7.2%. In the case of `CCN(CC(=O)Nc1ccc(OC)cc1)C(=O)Cc1coc2cc(C)c(C)cc12`, the Potency is reported as inconclusive [activator, partial curve, poor fit]. With `Cc1ccc2c(c1)N(CCC(=O)NCc1ccccn1)C(=O)CO2` the “activation” value was inactive: -1.13%. In the case of `Cc1ccc2c(CN(C)Cc3ccc(Cl)cc3)cc(=O)oc2c1`, the Potency is reported as inconclusive [activator, single point]. With `O=C(/C=C/c1ccc(-c2ccc(F)cc2)o1)N1CCCC1` the Potency was inconclusive [activator, partial curve, poor fit]. `Cc1nc(C)c(-c2ccc(SCC(=O)Nc3cccc(F)c3)nn2)s1` was tested, and the Potency was inconclusive [activator, partial curve, poor fit].
